Source: the supplement of paper PMC4967469
A lower IC50 marks a more sensitive line; a fit beyond the top or the lowest dose is shown as a bound at that dose. For AUC the same curve is integrated over the 256-fold range of doses and scaled to a fraction; values near 1 show little effect. The top dose, if marked as inferred, was calculated from the reported fits.

How the values were obtained:
Experiment in all cases: Viability of human cancer cell lines after 72 h of drug (GDSC screen)
Bryostatin 1 = compound: CCC/C=C/C=C/C(=O)O[C@H]1/C(=C/C(=O)OC)C[C@H]2C[C@H]([C@@H](C)O)OC(=O)C[C@H](O)C[C@@H]3C[C@H](OC(C)=O)C(C)(C)[C@](O)(C[C@@H]4C/C(=C/C(=O)OC)C[C@H](/C=C/C(C)(C)[C@]1(O)O2)O4)O3 [Bryostatin 1]; conditions: top dose 0.008 µM; top dose inferred
Experimental: (§1)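 Human cancer cell lines in 384-well plates, medium with 10% serum, drug for 72 h over a 256-fold dose range (nine 2-fold or five 4-fold steps up to the top dose). Adherent lines were fixed and stained with the nucleic acid dye Syto60, suspension lines read with resazurin; signal relative to control wells, capped at 0 and 100%. One two-parameter sigmoid per drug and line, fitted in a mixed model over all curves with the slope shared within a line.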

SGC0946 = compound: CC(C)N(CCCNC(=O)Nc1ccc(C(C)(C)C)cc1)C[C@H]1O[C@@H](n2cc(Br)c3c(N)ncnc32)[C@H](O)[C@@H]1O [SGC0946]; conditions: top dose 0.5 µM; top dose inferred
Experimental: as §1

GW-2580 = compound: COc1ccc(COc2ccc(Cc3cnc(N)nc3N)cc2OC)cc1 [GW-2580]; conditions: top dose 20 µM; top dose inferred
Experimental: as §1

Lenalidomide = compound: Nc1cccc2c1CN(C1CCC(=O)NC1=O)C2=O [Lenalidomide]; conditions: top dose 5 µM; top dose inferred
Experimental: as §1

Cell Line	AUC (Bryostatin 1)	IC50 (Bryostatin 1)	AUC (SGC0946)	IC50 (SGC0946)	AUC (GW-2580)	IC50 (GW-2580)	AUC (Lenalidomide)	IC50 (Lenalidomide)
HCC1395 (breast, adherent)	0.968	> 8 nM	0.981	> 500 nM	0.985	> 20000 nM	0.984	> 5000 nM
CP66-MEL (melanoma, adherent)	0.887	> 8 nM	0.984	> 500 nM	0.979	> 20000 nM	0.982	> 5000 nM
OVCAR-8 (ovary, adherent)	0.988	> 8 nM	0.983	> 500 nM	0.989	> 20000 nM	0.973	> 5000 nM
HCC1419 (breast, adherent)	0.975	> 8 nM	0.98	> 500 nM	0.974	> 20000 nM	0.954	> 5000 nM
OE19 (oesophagus, adherent)	0.984	> 8 nM	0.985	> 500 nM	0.985	> 20000 nM	0.978	> 5000 nM
451Lu (melanoma, adherent)	0.989	> 8 nM	0.986	> 500 nM	0.989	> 20000 nM	0.985	> 5000 nM
DU-145 (prostate, adherent)	0.956	> 8 nM	0.983	> 500 nM	0.978	> 20000 nM	0.98	> 5000 nM
LAMA-84 (chronic myeloid leukaemia, suspension)	0.958	> 8 nM	0.985	> 500 nM	0.985	> 20000 nM	0.967	> 5000 nM
ABC-1 (lung adenocarcinoma, adherent)	0.858	> 8 nM	0.98	> 500 nM	0.944	> 20000 nM	0.915	> 5000 nM
HCC70 (breast, adherent)	0.935	> 8 nM	0.987	> 500 nM	0.988	> 20000 nM	0.984	> 5000 nM
Hs633T (fibrosarcoma, adherent)	0.992	> 8 nM	0.991	> 500 nM	0.992	> 20000 nM	0.992	> 5000 nM
EW-7 (Ewing sarcoma, semi-adherent)	0.989	> 8 nM	0.988	> 500 nM	0.975	> 20000 nM	0.988	> 5000 nM
NCI-H841 (small cell lung carcinoma, adherent)	0.968	> 8 nM	0.958	> 500 nM	0.972	> 20000 nM	0.988	> 5000 nM
CaR-1 (large intestine, adherent)	0.929	> 8 nM	0.975	> 500 nM	0.958	> 20000 nM	0.954	> 5000 nM
RVH-421 (melanoma, adherent)	0.961	> 8 nM	0.971	> 500 nM	0.969	> 20000 nM	0.978	> 5000 nM
UACC-62 (melanoma, adherent)	0.967	> 8 nM	0.984	> 500 nM	0.982	> 20000 nM	0.983	> 5000 nM
MMAC-SF (melanoma, adherent)	0.986	> 8 nM	0.965	> 500 nM	0.986	> 20000 nM	0.986	> 5000 nM
UACC-893 (breast, adherent)	0.977	> 8 nM	0.98	> 500 nM	0.977	> 20000 nM	0.96	> 5000 nM
RCC10RGB (kidney, adherent)	0.895	> 8 nM	0.963	> 500 nM	0.95	> 20000 nM	0.955	> 5000 nM
SK-HEP-1 (liver, adherent)	0.972	> 8 nM	0.988	> 500 nM	0.988	> 20000 nM	0.989	> 5000 nM
EKVX (lung adenocarcinoma, adherent)	0.833	> 8 nM	0.95	> 500 nM	0.966	> 20000 nM	0.926	> 5000 nM
HAL-01 (lymphoblastic leukaemia, suspension)	0.989	> 8 nM	0.985	> 500 nM	0.989	> 20000 nM	0.975	> 5000 nM
A704 (kidney, adherent)	0.976	> 8 nM	0.988	> 500 nM	0.972	> 20000 nM	0.989	> 5000 nM
A2780 (ovary, semi-adherent)	0.973	> 8 nM	0.98	> 500 nM	0.976	> 20000 nM	0.953	> 5000 nM
KYSE-510 (oesophagus, adherent)	0.992	> 8 nM	0.992	> 500 nM	0.992	> 20000 nM	0.992	> 5000 nM
OCI-AML5 (acute myeloid leukaemia, suspension)	0.945	> 8 nM	0.984	> 500 nM	0.912	> 20000 nM	0.986	> 5000 nM
HSC-2 (head and neck, adherent)	0.987	> 8 nM	0.988	> 500 nM	0.984	> 20000 nM	0.989	> 5000 nM
CP50-MEL-B (melanoma, adherent)	0.956	> 8 nM	0.973	> 500 nM	0.988	> 20000 nM	0.988	> 5000 nM
HOP-62 (lung adenocarcinoma, adherent)	0.941	> 8 nM	0.985	> 500 nM	0.984	> 20000 nM	0.985	> 5000 nM
IPC-298 (melanoma, adherent)	0.965	> 8 nM	0.97	> 500 nM	0.984	> 20000 nM	0.986	> 5000 nM
